Values marked as one replicate rest on one cluster of the flow cell; about a third of the high ones do not repeat.
System: ATP
Assay: switch fluorescence ratio, 500 uM ATP over buffer (Cy3 cluster intensity, sum of 5 cycles each) (fold (ratio)); higher = stronger signal-on switching upon ATP binding; sequences stand for … in TCGTCGGCAGCGTCAGATGTGTATAAGAGACAGTTTTTTTTTTTTTTTTTTTTTTTTT…TC
Conditions: aptamer strand: ATP DNA aptamer (quencher-CACCTGGGGGAGTATTGCGGAGGAAGG + anchor), 100 nM annealed; ATP concentration: 500 uM; one replicate
In short: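 Switching-strand clusters labelled with Cy3 on a modified Illumina MiSeq flow-cell were annealed to 100 nM quencher-labelled ATP aptamer, imaged in selection buffer, and re-imaged after 15 min with 500 uM ATP at 22 °C. This was done over five cycles with NaOH stripping and re-annealing in between. The fluorescence ratio is summed target-cycle over summed buffer-cycle Cy3 intensity per cluster, averaged per switch-domain sequence, excluding clusters outside 100-1000 RFU.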
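Note: ATP exposure 15 min at 22 °C before imaging.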

Sequence | switch fluorescence ratio
ATATTCCTTG | 1.02
GTTTGTTGAC | 0.996
TCAAAATTGT | 1.04
GGATGCGGAA | 0.991
AGGAACTCCC | 1.12
CTGACCGTCC | 1.65
TGGTGCATCA | 0.998
TTTGAAAAAG | 0.973
GCGGTTGGTG | 1
TATTGCTGC | 0.959
AGGTGTTGCA | 0.941
AATTCACAGC | 1.05
AAGTAGAAAG | 0.977
GGATGATTGT | 0.997
TTTACAGGTG | 3.44
AATACGGCCA | 1.06
TCCGGAATT | 1.16
TCCAGCCTTA | 1.53
TAGTATTGCT | 1.04
GGGCGTCCGA | 1.01
TCGTGAACT | 0.951
TTTATGCAGT | 1

Sequence | switch fluorescence ratio
CCTCGCATAG | 3.73
TTTCGAGTGG | 1.03
AAACGTAGCT | 1.04
TTATCGTACG | 1.03
ATAACGGTCG | 0.939
GTCGGAGG | 0.996
TCGATTAGG | 1.01
TCATGAATCT | 1.03
ATCTACAAAG | 1.06
GCACGCCGAC | 1.21
ACATCTAGTA | 0.973
TCGTGTTTGC | 0.996
TCGTGCGCAG | 1.12
GGTATATAGC | 1.03
GTTCTACA | 0.999
CTATCTTTGA | 0.984
GGATTTCGCC | 1.01
CTCCACTGGT | 1.16
GTACTAATGC | 1.08
GCATTAAGAG | 0.982
TAATCCTGGA | 1.06
CACAGTAGT | 1.08

Sequence | switch fluorescence ratio
GACTGTGTTC | 1.01
CAGTGTAACA | 1.01
GCCCGATCTG | 1.04
AATGGCAGC | 1.01
GTTTTCACGG | 0.991
CGAGTCGATA | 0.97
TTGTCCGGCC | 1.06
GCTCGGCAAA | 1.04
TTTCGCCGCG | 1.25
GTAGAGCGCC | 0.99
GGACTGACCG | 0.962
TTCGCAGAAT | 1.17
GGGATTCAAT | 0.957
ATCCATCAGA | 1.01
GCTATGGGAA | 0.963
TTTGTAGGT | 0.994
GCATACTTCG | 1.19
CGGCATCCGC | 1.5
TGGCTTTGGC | 0.944
GCTACCGTAG | 1.2
AGATTGCACC | 1.02
AAATGAGTG | 0.944

Sequence | switch fluorescence ratio
ACAGGAGCTA | 1.11
GTGTTTGCAG | 0.976
AGGAATGGCG | 0.935
ACCTGCATCC | 2.22
TAAGAACTC | 0.984
ACTGGGTTGC | 0.989
CTTCTTGCT | 0.994
TACTGCAGTG | 0.972
AGGGGTGTTC | 1.05
TTGCGGAAAG | 0.986
CAAGTCTCTT | 1.03
TTATCAAAGT | 1.02
TCTTCGAGCA | 1.17
AATTCTGTAT | 0.995
AAATTGGGGT | 1.03
CGGAGTGATG | 1.12
TGCTTCAAGT | 0.95
ATGAGAAGGG | 1.03
GTGCGAAT | 1

From the supplement of paper PMC10126150
